The list shows a part of the results. Interaction screen of human proteins with wild-type SARS-CoV-2 proteins by split-DHFR complementation in yeast, 1 µg/mL methotrexate. Value = fitness of the pair (three or more lineages) minus that of the viral protein without a human partner, on a scale set by negative (0) and fused positive (1) controls, mean of up to three cultures; higher = more likely to interact. Active = false discovery rate below 0.05 (one-sided t-test) in at least one culture. Nearly all pairs are not hits, and differences among them are mostly noise (correlation between cultures about 0.3); most hits were seen in one culture only. Human sequences are the Swiss-Prot entries looked up by gene name; the clone may be another isoform. NSP2 values were corrected by the authors for a growth advantage. Listed are human proteins with a hit and a random twelfth of the others.

Sequences and labels used below:
B1: EPSTI1, Q96J88 (protein)
chain: MNTRNRVVNSGLGASPASRPTRDPQDPSGRQGELSPVEDQREGLEAAPKGPSRESVVHAGQRRTSAYTLIAPNINRRNEIQRIAEQELANLEKWKEQNRAKPVHLVPRRLGGSQSETEVRQKQQLQLMQSKYKQKLKREESVRIKKEAEEAELQKMKAIQREKSNKLEEKKRLQENLRREAFREHQQYKTAEFLSKLNTESPDRSACQSAVCGPQSSTWKLPILPRDHSWARSWAYRDSLKAEENRKLQKMKDEQHQKSELLELKRQQQEQERAKIHQTEHRRVNNAFLDRLQGKSQPGGLEQSGGCWNMNSGNSWGI
B2: CSNK1A1L, Q8N752 (protein)
chain: MTNNSGSKAELVVGGKYKLVRKIGSGSFGDVYLGITTTNGEDVAVKLESQKVKHPQLLYESKLYTILQGGVGIPHMHWYGQEKDNNVLVMDLLGPSLEDLFNFCSRRFTMKTVLMLADQMISRIEYVHTKNFLHRDIKPDNFLMGTGRHCNKLFLIDFGLAKKYRDNRTRQHIPYREDKHLIGTVRYASINAHLGIEQSRRDDMESLGYVFMYFNRTSLPWQGLRAMTKKQKYEKISEKKMSTPVEVLCKGFPAEFAMYLNYCRGLRFEEVPDYMYLRQLFRILFRTLNHQYDYTFDWTMLKQKAAQQAASSSGQGQQAQTQTGKQTEKNKNNVKDN
B3: ATG5, Q9H1Y0 (protein)
chain: MTDDKDVLRDVWFGRIPTCFTLYQDEITEREAEPYYLLLPRVSYLTLVTDKVKKHFQKVMRQEDISEIWFEYEGTPLKWHYPIGLLFDLLASSSALPWNITVHFKSFPEKDLLHCPSKDAIEAHFMSCMKEADALKHKSQVINEMQKKDHKQLWMGLQNDRFDQFWAINRKLMEYPAEENGFRYIPFRIYQTTTERPFIQKLFRPVAADGQLHTLGDLLKEVCPSAIDPEDGEKKNQVMIHGIEPMLETPLQWLSEHLSYPDNFLHISIIPQPTD
B4: PLD5, Q8N7P1 (protein)
chain: MEIRQHEWLSASPHEGFEQMRLKSRPKEPSPSLTRVGANFYSSVKQQDYSASVWLRRKDKLEHSQQKCIVIFALVCCFAILVALIFSAVDIMGEDEDGLSEKNCQNKCRIALVENIPEGLNYSENAPFHLSLFQGWMNLLNMAKKSVDIVSSHWDLNHTHPSACQGQRLFEKLLQLTSQNIEIKLVSDVTADSKVLEALKLKGAEVTYMNMTAYNKGRLQSSFWIVDKQHVYIGSAGLDWQSLGQMKELGVIFYNCSCLVLDLQRIFALYSSLKFKSRVPQTWSKRLYGVYDNEKKLQLQLNETKSQAFVSNSPKLFCPKNRSFDIDAIYSVIDDAKQYVYIAVMDYLPISSTSTKRTYWPDLDAKIREALVLRSVRVRLLLSFWKETDPLTFNFISSLKAICTEIANCSLKVKFFDLERENACATKEQKNHTFPRLNRNKYMVTDGAAYIGNFDWVGNDFTQNAGTGLVINQADVRNNRSIIKQLKDVFERDWYSPYAKTLQPTKQPNCSSLFKLKPLSNKTATDDTGGKDPRNV

For the first experiment, the target named is SARS-CoV-2 M. The experiment can be described thus: yeast fitness gain over the viral ORF with no human partner (scaled fitness); higher = more likely to interact. The method, then:
(§1)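 Split mouse DHFR complementation in pooled diploid yeast: human ORFeome clones carry one fragment and viral ORFs the other; barcoded lineages compete in 1 µg/mL methotrexate and fitness is read by barcode sequencing in up to three cultures.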
Regarding B1, the yeast fitness gain is inactive: -0.12.
The same measure, in the same setting: the same measure for B2: inactive: 0.021.
On the same count and under the same terms, the same measure for B3: inactive: -0.0454; for B4: inactive: -0.0852.

A further experiment has as its target SARS-CoV-2 NSP1. Described as above. As to the method: as §1
Regarding B1, the yeast fitness gain is inactive: 0.136.
On the same count and under the same terms, with B3 the figure was inactive: -0.0219.

For another experiment, the target named is SARS-CoV-2 NSP10. The experiment is described as above. The method, then:
as §1
As to B1, the yeast fitness gain was inactive: -0.0619.
The same measure, in the same setting: with B2 the figure was inactive: -0.105; with B3, inactive: -0.0723.
Still for that read-out and setting: with B4 the figure was inactive: 0.252.

In the next experiment the target is SARS-CoV-2 NSP12. The description is as above. As to the method: as §1
With B1, the yeast fitness gain is inactive: -0.263.
The same measure, in the same setting: the same measure for B2: inactive: 0.0206; for B3: inactive: -0.0603.
The same measure, in the same setting: the same measure for B4: inactive: 0.541.

In a further experiment the target is SARS-CoV-2 NSP13. The experiment is described as above. As to the method:
as §1
As to B1, the yeast fitness gain was inactive: -0.043.
The same measure, in the same setting: with B2 the figure was inactive: 0.0717; with B3, inactive: -0.0469.
Same read-out and setting: the same measure for B4: inactive: -0.0567.

The target in the next experiment is SARS-CoV-2 NSP15. The experiment is described as above. As to the method:
as §1
For the molecule B1, the yeast fitness gain is inactive: -0.0403.
Still for that read-out and setting: the same measure for B4: inactive: 0.0197.

A further experiment deals with SARS-CoV-2 NSP16. The description is as above. The method, then:
as §1
With B1, the yeast fitness gain was inactive: -0.0673.
In the case of B3, the yeast fitness gain is inactive: -0.0499.

A further experiment concerns the target SARS-CoV-2 NSP2. Described as above. As to the method: as §1
Take B1: the yeast fitness gain is inactive: -0.251.
B2: the yeast fitness gain was inactive: -0.171.
Take B3: the yeast fitness gain is inactive: -0.045.
Still for that read-out and setting: the same measure for B4: inactive: 0.601.

A further experiment addresses SARS-CoV-2 NSP5. The experiment is described as above. The method, then:
as §1
Regarding B1, the yeast fitness gain was inactive: -0.112.
Still for that read-out and setting: with B2 the figure was inactive: -0.0337; with B3, inactive: -0.167.

The target of the next experiment is SARS-CoV-2 NSP6. Described as above. The method, then: as §1
As for B1, the yeast fitness gain was inactive: 0.00969.
Still for that read-out and setting: the same measure for B2: inactive: -0.0301; for B3: inactive: 0.0333; for B4: inactive: -0.0712.

The target in the next experiment is SARS-CoV-2 NSP7. Described as above. As to the method: as §1
For the molecule B1, the yeast fitness gain was inactive: -0.171.
As to B3, the yeast fitness gain was inactive: -0.127.

The target of the next experiment is SARS-CoV-2 NSP8. The description is as above. As to the method: as §1
As to B1, the yeast fitness gain was inactive: -0.047.
On the same count and under the same terms, the same measure for B2: inactive: -0.0899; for B3: inactive: -0.0809; for B4: inactive: -0.0251.

Another experiment addresses SARS-CoV-2 ORF10. Described as above. The method, then:
as §1
B1: the yeast fitness gain was inactive: 0.0106.
The same measure, in the same setting: the same measure for B2: inactive: 0.0485; for B3: inactive: 0.0316.
The same measure, in the same setting: with B4 the figure was inactive: 0.00661.

In a further experiment the target is SARS-CoV-2 ORF3B. Described as above. As to the method: as §1
For the molecule B1, the yeast fitness gain was inactive: -0.0704.
Still for that read-out and setting: with B2 the figure was inactive: -0.0421; with B3, inactive: -0.03.
The same measure, in the same setting: with B4 the figure was inactive: -0.0186.

Another experiment has as its target SARS-CoV-2 ORF6. The description is as above. The method, then: as §1
Consider B1, for which the yeast fitness gain was inactive: 0.0117.
On the same count and under the same terms, with B2 the figure was inactive: 0.0619.
Regarding B3, the yeast fitness gain is inactive: -0.0646.
The same measure, in the same setting: with B4 the figure was inactive: 0.236.

The next experiment addresses SARS-CoV-2 ORF7A. The description is as above. The method, then: as §1
B1: the yeast fitness gain was inactive: -0.0891.
Same read-out and setting: the same measure for B3: inactive: 0.00795.

A further experiment concerns the target SARS-CoV-2 ORF7B. The description is as above. As to the method:
as §1
Take B1: the yeast fitness gain is inactive: 0.0843.
Turning to B3, the yeast fitness gain is inactive: 0.144.

In the next experiment the target is SARS-CoV-2 ORF8. The experiment is described as above. The method, then: as §1
On to B1, for which the yeast fitness gain was inactive: 0.0586.
Turning to B2, the yeast fitness gain was inactive: 0.0649.
Same read-out and setting: the same measure for B3: inactive: 0.0171.
The same measure, in the same setting: the same measure for B4: inactive: 0.211.

The target in a further experiment is SARS-CoV-2 ORF9B. Described as above. As to the method:
as §1
With B1, the yeast fitness gain is inactive: -0.103.
The same measure, in the same setting: the same measure for B2: inactive: -0.133.
On the same count and under the same terms, the same measure for B3: inactive: -0.027; for B4: inactive: -0.0798.

A further experiment has as its target SARS-CoV-2 ORF9Bwu (the 73-codon ORF). The experiment is described as above. As to the method:
as §1
Turning to B1, the yeast fitness gain is inactive: -0.0428.
As for B2, the yeast fitness gain was inactive: 0.131.

Another experiment has as its target SARS-CoV-2 S. The experiment is described as above. As to the method: as §1
As for B1, the yeast fitness gain was inactive: -0.0254.
For B2, the yeast fitness gain is inactive: -0.034.
Still for that read-out and setting: the same measure for B3: inactive: -0.0632; for B4: inactive: -0.0544.

The target of a further experiment is SARS-CoV-2 N. The description is as above. The method, then:
as §1
As to B2, the yeast fitness gain was inactive: -0.0432.

Another experiment deals with SARS-CoV-2 ORF3A. The description is as above. As to the method:
as §1
As to B2, the yeast fitness gain is inactive: -0.284.
Still for that read-out and setting: the same measure for B3: inactive: -0.0326.

Source of the values: the supplement of paper PMC11741623.
